System: MCF-10A, CCD-18Co
Assay: Bead whole-cell binding assay, normal cell lines
Settings: peptide on OBOC beads

Question: For AVARARRRR (Synthetic construct AGM-332), which “binding to normal human breast cell line MCF-10A” value is on record?
Answer: Its value is “did not bind to a normal human breast cell line (MCF-10A) or weakly bound thereto”.
